The values that follow come from PMC4749545, “Kindlin-2 cooperates with talin to activate integrins and induces cell spreading by directly binding paxillin” (eLife, 2016).

Chains of the proteins cited; added tags and fusions are not shown. Lines headed by an entry give the natural chain unless they say otherwise; changes in a name come on top. A line that says so, or that is headed by a name, gives the form on record, which may keep a tag or linker.
UniProt Q8VI36: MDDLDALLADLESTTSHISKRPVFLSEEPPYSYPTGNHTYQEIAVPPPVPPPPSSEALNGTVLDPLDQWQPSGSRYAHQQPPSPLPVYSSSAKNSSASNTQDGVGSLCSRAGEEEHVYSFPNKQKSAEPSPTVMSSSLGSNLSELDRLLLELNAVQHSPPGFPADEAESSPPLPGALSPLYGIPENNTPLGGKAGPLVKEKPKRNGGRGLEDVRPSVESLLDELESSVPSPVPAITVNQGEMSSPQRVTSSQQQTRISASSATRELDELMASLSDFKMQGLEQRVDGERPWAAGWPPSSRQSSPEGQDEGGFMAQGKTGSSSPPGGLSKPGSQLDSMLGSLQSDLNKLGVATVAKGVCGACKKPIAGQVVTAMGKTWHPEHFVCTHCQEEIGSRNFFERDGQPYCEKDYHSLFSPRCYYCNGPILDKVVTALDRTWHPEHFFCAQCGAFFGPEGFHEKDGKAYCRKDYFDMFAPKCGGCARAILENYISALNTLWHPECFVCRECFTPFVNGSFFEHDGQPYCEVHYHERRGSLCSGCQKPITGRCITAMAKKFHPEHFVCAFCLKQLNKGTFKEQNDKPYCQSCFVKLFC
GFP-tagged paxillin (Q8VI36-2, form named): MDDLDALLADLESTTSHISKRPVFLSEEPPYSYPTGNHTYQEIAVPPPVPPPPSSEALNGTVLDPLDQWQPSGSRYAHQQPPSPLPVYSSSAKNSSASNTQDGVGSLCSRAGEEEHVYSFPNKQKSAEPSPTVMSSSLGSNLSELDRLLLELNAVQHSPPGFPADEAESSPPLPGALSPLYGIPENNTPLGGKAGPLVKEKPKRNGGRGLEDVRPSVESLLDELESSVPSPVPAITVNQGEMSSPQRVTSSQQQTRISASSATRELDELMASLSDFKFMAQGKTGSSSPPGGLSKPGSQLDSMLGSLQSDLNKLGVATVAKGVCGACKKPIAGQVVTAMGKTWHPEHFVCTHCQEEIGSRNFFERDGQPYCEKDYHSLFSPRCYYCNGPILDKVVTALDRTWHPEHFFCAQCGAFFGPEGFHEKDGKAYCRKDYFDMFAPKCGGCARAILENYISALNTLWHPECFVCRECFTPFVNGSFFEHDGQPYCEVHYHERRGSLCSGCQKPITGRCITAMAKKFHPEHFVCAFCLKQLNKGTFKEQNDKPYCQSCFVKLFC
UniProt Q62219: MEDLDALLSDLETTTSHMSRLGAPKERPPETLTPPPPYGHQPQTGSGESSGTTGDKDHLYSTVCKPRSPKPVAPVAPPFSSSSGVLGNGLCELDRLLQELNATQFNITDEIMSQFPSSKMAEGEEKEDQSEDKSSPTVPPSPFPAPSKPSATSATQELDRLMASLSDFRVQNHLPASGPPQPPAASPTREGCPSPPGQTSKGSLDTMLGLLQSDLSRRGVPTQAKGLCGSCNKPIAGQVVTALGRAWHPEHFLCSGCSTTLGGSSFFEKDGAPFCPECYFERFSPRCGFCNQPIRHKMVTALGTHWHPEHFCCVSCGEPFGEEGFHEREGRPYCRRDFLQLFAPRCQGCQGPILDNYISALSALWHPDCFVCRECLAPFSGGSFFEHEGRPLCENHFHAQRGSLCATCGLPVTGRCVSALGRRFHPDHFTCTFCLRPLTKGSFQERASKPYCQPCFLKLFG
UniProt O43294: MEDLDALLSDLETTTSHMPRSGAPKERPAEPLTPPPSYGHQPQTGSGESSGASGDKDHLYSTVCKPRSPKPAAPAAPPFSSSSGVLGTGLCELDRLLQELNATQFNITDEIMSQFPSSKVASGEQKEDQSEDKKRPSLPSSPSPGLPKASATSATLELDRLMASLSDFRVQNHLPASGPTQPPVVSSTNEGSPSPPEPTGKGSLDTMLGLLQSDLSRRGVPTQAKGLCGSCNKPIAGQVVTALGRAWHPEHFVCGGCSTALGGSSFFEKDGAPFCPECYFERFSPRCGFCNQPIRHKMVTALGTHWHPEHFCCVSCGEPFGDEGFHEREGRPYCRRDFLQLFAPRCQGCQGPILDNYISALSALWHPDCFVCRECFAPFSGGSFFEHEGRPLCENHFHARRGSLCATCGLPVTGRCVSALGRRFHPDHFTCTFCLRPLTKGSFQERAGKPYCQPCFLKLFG
UniProt P34152: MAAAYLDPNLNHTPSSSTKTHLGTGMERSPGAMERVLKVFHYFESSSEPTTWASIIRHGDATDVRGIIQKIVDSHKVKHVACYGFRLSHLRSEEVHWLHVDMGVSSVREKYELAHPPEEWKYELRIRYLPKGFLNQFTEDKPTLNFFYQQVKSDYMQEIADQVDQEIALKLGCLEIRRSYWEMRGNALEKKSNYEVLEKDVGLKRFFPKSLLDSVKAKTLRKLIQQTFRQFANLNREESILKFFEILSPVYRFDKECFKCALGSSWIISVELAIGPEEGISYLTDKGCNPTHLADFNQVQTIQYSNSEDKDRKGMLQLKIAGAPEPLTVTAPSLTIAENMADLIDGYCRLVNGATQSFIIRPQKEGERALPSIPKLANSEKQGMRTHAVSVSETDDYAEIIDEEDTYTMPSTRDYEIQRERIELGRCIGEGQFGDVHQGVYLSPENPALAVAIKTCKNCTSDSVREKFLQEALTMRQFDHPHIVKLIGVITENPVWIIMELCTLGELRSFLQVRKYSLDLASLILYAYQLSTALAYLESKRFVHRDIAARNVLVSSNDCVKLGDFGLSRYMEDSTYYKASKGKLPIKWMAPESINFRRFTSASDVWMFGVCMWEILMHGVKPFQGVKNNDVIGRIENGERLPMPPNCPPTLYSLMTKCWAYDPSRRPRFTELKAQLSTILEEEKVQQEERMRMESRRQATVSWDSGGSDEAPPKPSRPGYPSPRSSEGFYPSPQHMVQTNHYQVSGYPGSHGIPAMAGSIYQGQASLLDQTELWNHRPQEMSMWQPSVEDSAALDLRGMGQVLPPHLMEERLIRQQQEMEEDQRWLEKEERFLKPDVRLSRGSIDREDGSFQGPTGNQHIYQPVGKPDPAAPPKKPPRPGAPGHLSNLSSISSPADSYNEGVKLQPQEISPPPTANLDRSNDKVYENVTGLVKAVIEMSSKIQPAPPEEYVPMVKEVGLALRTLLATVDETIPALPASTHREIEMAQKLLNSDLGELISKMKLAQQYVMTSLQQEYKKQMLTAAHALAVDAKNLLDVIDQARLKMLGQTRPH

No constants are given. Whether binding was seen depends on the method and setting. For some of these results: In cells and extracts the contact can be indirect. Some binding calls cover weakened binding; strength is not graded here. For some of these results: Tags and fused reporters may be left off the sequences shown.

Experiment [1] deals with T1, kindlin-2 N-terminally fused with the Gal4-DNA binding domain (mouse) (UniProt Q8CIB5).
T1 sequence: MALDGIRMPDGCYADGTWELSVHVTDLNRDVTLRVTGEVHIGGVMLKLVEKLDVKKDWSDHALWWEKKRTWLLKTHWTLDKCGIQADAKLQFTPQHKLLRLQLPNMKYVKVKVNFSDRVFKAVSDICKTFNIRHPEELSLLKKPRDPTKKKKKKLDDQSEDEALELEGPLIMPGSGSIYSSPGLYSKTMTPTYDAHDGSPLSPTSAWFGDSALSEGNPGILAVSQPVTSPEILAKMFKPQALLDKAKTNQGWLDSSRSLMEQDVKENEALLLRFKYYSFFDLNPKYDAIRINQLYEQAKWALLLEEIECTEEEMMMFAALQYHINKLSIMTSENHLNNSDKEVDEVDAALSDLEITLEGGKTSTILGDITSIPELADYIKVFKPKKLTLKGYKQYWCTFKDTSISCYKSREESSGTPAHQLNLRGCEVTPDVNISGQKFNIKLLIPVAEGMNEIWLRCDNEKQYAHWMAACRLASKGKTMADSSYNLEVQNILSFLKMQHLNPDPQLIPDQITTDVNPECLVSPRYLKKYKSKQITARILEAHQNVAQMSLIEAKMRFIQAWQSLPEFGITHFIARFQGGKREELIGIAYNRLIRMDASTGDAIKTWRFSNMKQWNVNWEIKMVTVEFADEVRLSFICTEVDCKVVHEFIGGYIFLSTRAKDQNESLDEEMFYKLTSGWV
The experiment in a line: two-hybrid; kindlin-2 fused to the Gal4 DNA-binding domain (pGBKT7) as bait, screened against a human full ORF cDNA library and a human keratinocyte-derived cDNA library.

For experiment [2], the target named is T2, GFP-tagged kindlin-2 lacking the PH domain (in Kind^Ko cells) (mouse) (UniProt Q8CIB5).
T2 sequence: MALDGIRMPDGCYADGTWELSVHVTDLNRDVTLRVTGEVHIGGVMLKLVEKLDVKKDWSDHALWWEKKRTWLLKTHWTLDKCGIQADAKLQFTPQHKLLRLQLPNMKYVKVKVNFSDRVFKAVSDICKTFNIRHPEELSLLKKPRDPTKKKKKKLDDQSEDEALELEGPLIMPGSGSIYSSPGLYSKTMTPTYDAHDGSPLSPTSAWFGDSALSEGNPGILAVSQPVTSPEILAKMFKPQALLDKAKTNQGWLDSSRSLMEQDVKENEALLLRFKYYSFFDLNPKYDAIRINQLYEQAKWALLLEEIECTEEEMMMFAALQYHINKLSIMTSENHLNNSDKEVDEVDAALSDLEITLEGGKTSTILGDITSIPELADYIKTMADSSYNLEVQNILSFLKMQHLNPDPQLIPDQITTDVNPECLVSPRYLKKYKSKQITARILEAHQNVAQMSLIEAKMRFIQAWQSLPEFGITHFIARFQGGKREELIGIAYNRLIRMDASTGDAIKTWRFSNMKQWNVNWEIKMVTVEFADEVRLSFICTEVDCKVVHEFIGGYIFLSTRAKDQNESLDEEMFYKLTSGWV
The experiment in a line: co-IP; GFP-IP in lysates of K2GFP-, K2ΔPHGFP- or GFP-reconstituted Kind^Ko cells overexpressing FAK-Myc and PxnCH.

Experiment [3] addresses T3, green fluorescent protein-tagged kindlin-2 (in Kind^Ko cells) (mouse) (UniProt Q8CIB5).
T3 sequence: T1 sequence
The experiment is described as above.

The target of experiment [4] is paxillin (endogenous, Kind^Ctr fibroblasts) (mouse (endogenous in Kind^Ctr fibroblasts)) (UniProt Q8VI36). The experiment in a line: co-IP; Kind^Ctr fibroblasts lysed in 50 mM Tris pH 8.0, 150 mM NaCl, 1% Triton X-100, 0.05% sodium deoxycholate, 10 mM EDTA; paxillin antibody 2 hr at 4°C, protein A/G Plus Agarose; isotype-matched IgG as control; western blot. In general terms: In western blotting, separated proteins are transferred to a membrane and probed.

Another experiment addresses GFP-tagged Hic-5 (mouse) (UniProt Q62219). The experiment in a line: co-IP; GFP-IP with µ-MACS anti-GFP magnetic beads of lysates of HEK 293T cells overexpressing the GFP-tagged bait and the FLAG- or Cherry-tagged partner; western blot.
Experiment [5] concerns the target T4, GFP-tagged leupaxin (mouse) (UniProt Q99N69).
T4 sequence: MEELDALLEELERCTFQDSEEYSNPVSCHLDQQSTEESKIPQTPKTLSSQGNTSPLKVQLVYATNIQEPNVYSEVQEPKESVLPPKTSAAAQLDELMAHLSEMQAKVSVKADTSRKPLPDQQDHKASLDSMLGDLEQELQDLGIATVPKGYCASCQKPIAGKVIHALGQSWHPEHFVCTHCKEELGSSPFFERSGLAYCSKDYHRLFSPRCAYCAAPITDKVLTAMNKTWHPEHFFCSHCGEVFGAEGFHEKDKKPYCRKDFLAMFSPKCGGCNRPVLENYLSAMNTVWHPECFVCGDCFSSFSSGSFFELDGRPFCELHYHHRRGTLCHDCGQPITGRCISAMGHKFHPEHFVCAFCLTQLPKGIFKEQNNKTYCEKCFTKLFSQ
The description is as above.

In another experiment the target is GFP-tagged paxillin (UniProt Q8VI36). The description is as above.

As for “Hic-5 (human cDNA library clone) (from UniProt O43294 1-461)”, in experiment [1], the binding result was “binds”. As for “Myc-tagged FAK (from UniProt P34152 1-1052) (enzyme)”, the binding result in experiment [2] was “no binding”; in experiment [3], “binds”. For “Cherry-tagged paxillin (in Kind^Ko cells) (from UniProt Q8VI36-2 1-557)”, in that order: “no binding” and “binds”.

B1: leupaxin (human cDNA library clone) (protein, UniProt O60711 1-386)
chain: MEELDALLEELERSTLQDSDEYSNPAPLPLDQHSRKETNLDETSEILSIQDNTSPLPAQLVYTTNIQELNVYSEAQEPKESPPPSKTSAAAQLDELMAHLTEMQAKVAVRADAGKKHLPDKQDHKASLDSMLGGLEQELQDLGIATVPKGHCASCQKPIAGKVIHALGQSWHPEHFVCTHCKEEIGSSPFFERSGLAYCPNDYHQLFSPRCAYCAAPILDKVLTAMNQTWHPEHFFCSHCGEVFGAEGFHEKDKKPYCRKDFLAMFSPKCGGCNRPVLENYLSAMDTVWHPECFVCGDCFTSFSTGSFFELDGRPFCELHYHHRRGTLCHGCGQPITGRCISAMGYKFHPEHFVCAFCLTQLSKGIFREQNDKTYCQPCFNKLFPL
Turning to B1, the binding result in experiment [1] is “binds”.

B2: kindlin-2 (endogenous, Kind^Ctr fibroblasts) (protein, UniProt Q8CIB5 1-680)
chain: T1 sequence
B2: in experiment [4], the binding entry is listed as “binds”.

B3: FLAG-tagged kindlin-2 (protein, UniProt Q8CIB5 1-680)
chain: T1 sequence
For B3, the binding entry (in the experiment with GFP-tagged Hic-5 (mouse); in experiment [5]; with GFP-tagged paxillin) was “binds” throughout.
